# Results as given in the supplement of paper PMC8728848.
# The list shows a part of the results.
# B1: Surfactant Protein D (Human); Neck + Carbohydrate Recognition Domain (NCRD) (Homo sapiens) (protein)
# chain: MLLFLLSALVLLTQPLGYLEAEMKTYSHRTMPSACTLVMCSSVESGLPGRDRDGREGPRGEKGDPGLPGAAGQAGMPGQAGPVGPKGDNGSVGEPGPKGDTGPSGPPGPPGVPGPAGREGALGKQGNIGPQGKPGPKGEAGPKGEVGAPGMQGSAGARGLAGPKGERGVPGERGVPGNTGAAGSAGAMGPQGSPGARGPPGLKGDKGIPGDKGAKGESGLPDVASLRQQVEALQGQVQHLQAAFSQYKKVELFPNGQSVGEKIFKTAQFVKPFTEAQLLCTQAGGQLASPRSAAENAALQQLVVAKNEAAFLSMTDSKTEGKFTYPTGESLVYSNWAPGEPNDDGGSEDCVEIFTNGKWNDRACGEARLVVCEF
# Columns and labels:
# Test in all cases: glycan array binding signal (z-score within array); higher = stronger binding
# Details in all cases: glycan notation: IUPAC condensed, linker removed; mutation: K348A
# [1] = molecular target: Gal(b1-4)GlcNAc(b1-3)Gal(b1-4)GlcNAc(b1-3)Gal(b1-4)GlcNAc
# Summary of the method: (§1)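 Arrays were curated from the Consortium for Functional Glycomics database, 3228 in total, and kept only where the protein sequence was available. Binding is expressed as a within-array Z-score. This score was averaged across arrays of the same protein sequence at different concentrations or buffers and across linkers, and negative values can be read as non-binding.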
# [2] = molecular target: Gal(b1-4)GlcNAc(b1-3)Gal(b1-4)[Fuc(a1-3)]GlcNAc(b1-3)Gal(b1-4)[Fuc(a1-3)]GlcNAc
# Summary of the method: as §1
# [3] = molecular target: Gal(b1-4)GlcNAc(b1-3)GalNAc
# Summary of the method: as §1
# [4] = molecular target: Gal(b1-4)GlcNAc(b1-3)[Gal(b1-4)GlcNAc(b1-6)]Gal(b1-4)GlcNAc
# Summary of the method: as §1
# [5] = molecular target: Gal(b1-4)GlcNAc(b1-3)[GlcNAc(b1-6)]Gal(b1-4)GlcNAc
# Summary of the method: as §1
# [6] = molecular target: Gal(b1-4)GlcNAc(b1-6)Gal(b1-4)GlcNAc
# Summary of the method: as §1
# [7] = molecular target: Gal(b1-4)GlcNAc(b1-6)Gal(b1-4)GlcNAc(b1-6)GalNAc
# Summary of the method: as §1
# [8] = molecular target: Gal(b1-4)GlcNAc(b1-6)GalNAc
# Summary of the method: as §1
# [9] = molecular target: Gal(b1-4)GlcNAc(b1-6)[Gal(b1-3)]GalNAc
# Summary of the method: as §1
# Gal3S(b1-3)GalNAc = molecular target: Gal3S(b1-3)GalNAc
# Summary of the method: as §1
# Gal3S(b1-3)GlcNAc = molecular target: Gal3S(b1-3)GlcNAc
# Summary of the method: as §1
# [10] = molecular target: Gal3S(b1-3)[Fuc(a1-4)]GlcNAc
# Summary of the method: as §1
# Gal3S(b1-4)Glc = molecular target: Gal3S(b1-4)Glc
# Summary of the method: as §1
# Gal3S(b1-4)Glc6S = molecular target: Gal3S(b1-4)Glc6S
# Summary of the method: as §1
# Gal3S(b1-4)GlcNAc = molecular target: Gal3S(b1-4)GlcNAc
# Summary of the method: as §1
# Gal3S(b1-4)GlcNAc6S = molecular target: Gal3S(b1-4)GlcNAc6S
# Summary of the method: as §1
# [11] = molecular target: Gal3S(b1-4)[Fuc(a1-3)]Glc
# Summary of the method: as §1
# Gal3S4S(b1-4)GlcNAc = molecular target: Gal3S4S(b1-4)GlcNAc
# Summary of the method: as §1
# Gal3S6S(b1-4)GlcNAc = molecular target: Gal3S6S(b1-4)GlcNAc
# Summary of the method: as §1
# Gal3S6S(b1-4)GlcNAc6S = molecular target: Gal3S6S(b1-4)GlcNAc6S
# Summary of the method: as §1
# Gal4S(b1-4)GlcNAc = molecular target: Gal4S(b1-4)GlcNAc
# Summary of the method: as §1
# Gal4S6S(b1-4)GlcNAc = molecular target: Gal4S6S(b1-4)GlcNAc
# Summary of the method: as §1
# Gal6S(b1-4)Glc = molecular target: Gal6S(b1-4)Glc
# Summary of the method: as §1
# Gal6S(b1-4)Glc6S = molecular target: Gal6S(b1-4)Glc6S
# Summary of the method: as §1
# Gal6S(b1-4)GlcNAc = molecular target: Gal6S(b1-4)GlcNAc
# Summary of the method: as §1
# Gal6S(b1-4)GlcNAc6S = molecular target: Gal6S(b1-4)GlcNAc6S
# Summary of the method: as §1
# GalNAc(a1-3)Gal = molecular target: GalNAc(a1-3)Gal
# Summary of the method: as §1
# GalNAc(a1-3)GalNAc = molecular target: GalNAc(a1-3)GalNAc
# Summary of the method: as §1
# GalNAc(b1-3)Gal = molecular target: GalNAc(b1-3)Gal
# Summary of the method: as §1
# [12] = molecular target: GalNAc(b1-3)Gal(a1-4)Gal(b1-4)GlcNAc
# Summary of the method: as §1
binder,measurement,setting,value
B1,glycan array binding signal (z-score),[1],-0.172
same,glycan array binding signal (z-score),[2],-0.168
same,glycan array binding signal (z-score),[3],-0.15
same,glycan array binding signal (z-score),[4],-0.175
same,glycan array binding signal (z-score),[5],-0.161
same,glycan array binding signal (z-score),[6],-0.153
same,glycan array binding signal (z-score),[7],-0.157
same,glycan array binding signal (z-score),[8],-0.173
same,glycan array binding signal (z-score),[9],-0.158
same,glycan array binding signal (z-score),Gal3S(b1-3)GalNAc,-0.172
same,glycan array binding signal (z-score),Gal3S(b1-3)GlcNAc,-0.157
same,glycan array binding signal (z-score),[10],-0.174
same,glycan array binding signal (z-score),Gal3S(b1-4)Glc,-0.172
same,glycan array binding signal (z-score),Gal3S(b1-4)Glc6S,-0.163
same,glycan array binding signal (z-score),Gal3S(b1-4)GlcNAc,-0.166
same,glycan array binding signal (z-score),Gal3S(b1-4)GlcNAc6S,-0.165
same,glycan array binding signal (z-score),[11],-0.17
same,glycan array binding signal (z-score),Gal3S4S(b1-4)GlcNAc,-0.156
same,glycan array binding signal (z-score),Gal3S6S(b1-4)GlcNAc,-0.181
same,glycan array binding signal (z-score),Gal3S6S(b1-4)GlcNAc6S,-0.169
same,glycan array binding signal (z-score),Gal4S(b1-4)GlcNAc,-0.155
same,glycan array binding signal (z-score),Gal4S6S(b1-4)GlcNAc,-0.176
same,glycan array binding signal (z-score),Gal6S(b1-4)Glc,-0.17
same,glycan array binding signal (z-score),Gal6S(b1-4)Glc6S,-0.171
same,glycan array binding signal (z-score),Gal6S(b1-4)GlcNAc,-0.163
same,glycan array binding signal (z-score),Gal6S(b1-4)GlcNAc6S,-0.146
same,glycan array binding signal (z-score),GalNAc(a1-3)Gal,-0.105
same,glycan array binding signal (z-score),GalNAc(a1-3)GalNAc,-0.168
same,glycan array binding signal (z-score),GalNAc(b1-3)Gal,-0.161
same,glycan array binding signal (z-score),[12],-0.163
